# In PubChem BioAssay AID602393 (Broad Institute, 2012):
# Among all 350,000 compounds or so, about 7,000 (2%) were called active. The inconclusive results got no clear call from the source; some entries with a clear call stand among them for comparison. No stated cut-off is given here; in the data, active means activation above about 40%; inconclusive means no clear call, values can overlap the other calls; inactive means below that.
# Test: raisers of Bmi1 knock-in reporter signal – mouse ES cells, Bmi1 luciferase knock-in, single point, esBAF inhibitor project, primary screen (AID 602393);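 further: 0% = median of the plate's neutral control wells and 100% = double that signal; a rise in the Bmi1 reporter signal indicates esBAF inhibition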
# Details: 24 h, at 12.5 µM, active compounds read high, 100% = twice the neutral-well signal
row,Compound,reporter increase
1,CCNC(=O)Nc1ccc2c(c1)C(=O)N(C)[C@@H]1CC[C@@H](CC(=O)NCc3ccc(F)cc3)O[C@@H]1CO2,inactive: -3.99%
2,Cn1c(NCc2ccccc2Cl)nc2ccccc21,inconclusive: 40.1%
3,C[C@@H]1CCCCO[C@@H](CN(C)Cc2ccc(Cl)c(Cl)c2)[C@H](C)CN([C@@H](C)CO)C(=O)c2cc(NS(=O)(=O)c3ccc(Cl)cc3)ccc2O1,inactive: 9.36%
4,COc1ccc(-c2csc(N(C)C(=O)c3ccco3)n2)cc1,inconclusive: 41.2%
5,Clc1ccccc1CSc1nc2ccncc2[nH]1,inconclusive: 41.7%
6,CCOc1ccc(OCc2ccc(C(=O)Nc3cccnc3)o2)cc1,inconclusive: 41.7%
7,CC(=O)c1c(C)oc2ccc(OCc3ccccc3)cc12,inconclusive: 54.2%
8,CCOC(=O)Nc1ccc2c(c1)Nc1ccccc1S2,inconclusive: 47.2%
9,COC(=O)c1ccc(COc2ccc(C(C)(C)C)cc2)o1,inconclusive: 39.3%
10,COCC(=O)Nc1ccc2c(c1)[C@@H]1C[C@H](CC(=O)N[C@@H](C)c3ccccc3)O[C@H](CO)[C@@H]1O2,inactive: -4.18%
11,COc1ccc(NC(=O)CO/N=C/C(=O)Nc2ccccc2C)c([N+](=O)[O-])c1,inconclusive: 46%
12,Cc1cc(/C=N\NC(=O)c2cccs2)c(C)n1-c1ccc2ncccc2c1,active: 72.4%
13,O=C(Nc1ccc([N+](=O)[O-])cc1)N1CCc2ccccc2C1,active: 50.8%
14,CC1CCCC(C)N1C(=O)CSc1nnc(-c2cccs2)o1 (stereo unspecified),active: 45.8%
15,O=C(Nc1ccc2ncccc2c1)Nc1ccc2ncccc2c1,inconclusive: 44.2%
16,CC(=O)N1CCN(c2ccc(NC(=O)c3cccc(Cl)c3)cc2)CC1,inconclusive: 41%
17,COc1ccc(CC(=O)Nc2ccc(S(=O)(=O)Nc3nccs3)cc2)cc1,inactive: -4.07%
18,CN(C)/C=C1\N=C(c2ccc(Cl)cc2Cl)OC1=O,inconclusive: 49.2%
19,CCC(=NCc1ccccc1)c1c(C(F)(F)F)[nH]n(-c2nc3ccccc3s2)c1=O,inactive: -1.75%
20,Cc1sc(NC(=O)c2ccc(Br)s2)c(C(N)=O)c1C,inconclusive: 48.9%
21,Cc1c(C(=O)Nc2ccccc2)sc2nc(-c3ccccc3)cn12,inconclusive: 40.8%
22,Cc1ccc2c(CN3CCC(C)CC3)cc(=O)oc2c1C,inconclusive: 45.4%
23,COc1ccc(CCC2(C)NC(=O)NC2=O)cc1 (stereo unspecified),inactive: -4.3%

row,Compound,reporter increase
1,Clc1ccc2nc(-c3ccc(Cl)nc3)[nH]c2c1,active: 57.5%
2,CCCC(=O)Nc1ccc2c(c1)OC[C@H](C)N(Cc1ccccc1F)C[C@H](C)[C@H](OC)CN(C)C2=O,inactive: 2.71%
3,COCCNC(=O)c1ccc2c(Cl)c3c(nc2c1)CCC3,inconclusive: 30.4%
4,Cc1ccc(NC(=O)c2ccc3snnc3c2)cc1C,inconclusive: 44%
5,CC(=O)c1cccc(NC(=O)c2ccc(-c3c(C)noc3C)c3ccoc23)c1,inconclusive: 42.3%
6,Cc1ccc(Nc2cc(C)nc(-c3ccccc3)n2)cc1,inconclusive: 43%
7,C[C@H](CO)N1C[C@H](C)[C@H](CN(C)C(=O)Nc2ccccc2)OCCCC[C@H](C)Oc2ccc(NC(=O)Nc3ccc4c(c3)OCO4)cc2C1=O,active: 49.3%
8,Cc1cc(NCc2ccccn2)ccc1Br,inconclusive: 43.6%
9,O=C(Nc1ccc(Br)cc1)Nc1ccccc1Cl,inconclusive: 99%
10,Nc1c(N=Nc2cccc(Cl)c2)c(=O)[nH]n1-c1ccccc1,inconclusive: 40.2%
11,O=C(CCC1CCCN(C(=O)Cc2cccc(F)c2)C1)N1CCN(c2ccccn2)CC1 (stereo unspecified),inconclusive: 54.3%
12,S=c1[nH]nc(-c2ccc(Cl)cc2Cl)n1-c1ccccc1,inconclusive: 43.9%
13,COc1cccc(C2Nc3ccccc3C(=O)N2c2ccc(F)cc2)c1O (stereo unspecified),inconclusive: 40.6%
14,Cc1ccc(SSc2cc(C)ccc2N)c(N)c1,inconclusive: 42.9%
15,C=CCn1cccc(C(=O)Nc2ccc(Cl)cc2)c1=O,active: 62.8%
16,COc1nc(C)ccc1-c1noc(-c2cccnc2)n1,inconclusive: 41.1%
17,CO[C@@H]1CN(C)C(=O)c2cc(NC(=O)Nc3cccc(F)c3)ccc2OC[C@H](C)N(C)C[C@H]1C,inactive: 1.93%
18,C[C@@H]1CN([C@@H](C)CO)C(=O)Cc2cc(NS(C)(=O)=O)ccc2O[C@H]1CN(C)Cc1ccncc1,inactive: -1.34%
19,C[C@@H]1CN([C@@H](C)CO)C(=O)c2cc(NC(=O)Cn3cnnn3)ccc2O[C@@H]1CN(C)S(=O)(=O)c1ccc(Cl)cc1,inactive: 2.39%
20,CCOC(=O)C1=C(CSc2nc(-c3ccccc3)ccc2C#N)OC(N)=C(C#N)C1c1ccccc1 (stereo unspecified),inconclusive: 41.7%
21,COc1ccc(N=Cc2c(O)c3ccccc3oc2=O)cc1,inconclusive: 47%
22,COC(=O)c1ccsc1NC(=O)c1ccc2c(c1)OCCO2,inconclusive: 42.3%
23,c1ccc(OCc2nc(-c3cccs3)no2)cc1,active: 58.4%

row,Compound,reporter increase
1,O=C(CSc1nc2[nH]ncc2c(=O)[nH]1)Nc1ccccc1C(F)(F)F,inactive: -1.17%
2,O=C(COC(=O)c1cccnc1Cl)c1cccc(Cl)c1,inconclusive: 58.2%
3,CCC(C(=O)O/N=C(\N)c1cccc(C)c1)c1ccccc1 (stereo unspecified),inconclusive: 40.1%
4,c1ccc(NC2=Nc3cccc4cccc2c34)cc1,inactive: 16.2%
5,Cc1ccc(C(=O)NC(=S)Nc2ccccc2C)cc1,active: 69.2%
6,CCc1ccc(NC(=O)CCn2cccc2)cc1,inconclusive: 43.3%
7,Fc1ccc2cnc(C3=CCCCC3)cc2c1,inconclusive: 40.7%
8,O=C(Nc1ccc2nn(-c3ccccc3)nc2c1)c1cccs1,inconclusive: 41%
9,CC(=O)c1cccc(NC(=S)NC(=O)c2ccc(C)cc2Cl)c1,active: 59.6%
10,Nn1c(COc2ccc(Cl)cc2)nc2ccccc2c1=O,inconclusive: 44.4%
11,COc1cc(SC)ccc1C(=O)Nc1ccccc1,inconclusive: 45.2%
12,O=C1C(=C2CCc3ccccc32)Cc2ccccc21,active: 70.9%
13,Cc1ccccc1C(=O)O/N=C1\CCS(=O)(=O)c2sccc21,inconclusive: 42.9%
14,O=C(CCC(=O)c1ccc[nH]1)c1ccc(Cl)cc1,inconclusive: 40.5%
15,O=C(Nc1ccccc1F)Oc1cccc(OC(=O)Nc2ccccc2F)c1,inconclusive: 45.2%
16,Nc1nc(CSc2ccccc2)nc(N2CCCCC2)n1,inconclusive: 50.9%
17,Cn1c(=O)c(C(=O)NCc2ccccc2Cl)c(O)c2ccccc21,inconclusive: 49.3%
18,Cc1cc(Cl)c2oc(C(=O)N(C)Cc3ccon3)c(C)c2c1,active: 71.5%
19,Cc1cc(O)c(C(=O)/C=C/c2c(F)c(F)c(F)c(F)c2F)c(=O)o1,inconclusive: 42.1%
20,C/C=C/c1cnc2c(c1)C(=O)N([C@H](C)CO)C[C@@H](C)[C@H](CN(C)C(=O)CN1CCOCC1)O2,inactive: -0.552%
21,Cc1cc([N+](=O)[O-])ccc1NC(=O)c1cc2ccccc2o1,inconclusive: 46.4%
22,Cc1ccc2nc3c(nc2c1)-c1ccccc1C3=O,inconclusive: 41.4%
23,Cc1nn(-c2ccccn2)c2c1-c1nc(N)ncc1CC2,inconclusive: 41.6%

row,Compound,reporter increase
1,Cc1ccc2c(C)cc[n+](CCCS(=O)(=O)[O-])c2c1,inconclusive: 41.2%
2,C(=Cc1cnnc2ccccc12)c1ccccc1,active: 138%
3,Cc1ccc(NC(=O)c2ccc(CSc3nnc(C)s3)cc2)c(C)c1,inconclusive: 41.5%
4,Cc1noc(C)c1NC(=O)N(C)C[C@@H]1Oc2ccc(NC(=O)Nc3cccc4ccccc34)cc2C(=O)N([C@H](C)CO)C[C@@H]1C,inactive: -2.46%
5,O=C(NNC(=O)c1cccc(-n2cccc2)c1)c1ccccc1,inconclusive: 42.6%
6,Cc1ccc(C(=O)N2CCN(c3ccc(NC(=O)c4ccc(Br)o4)cc3)CC2)cc1,inconclusive: 68.5%
7,COc1ccc(-c2nc(CS(=O)CC(=O)NC3CCC(C)CC3)c(C)o2)cc1OC (stereo unspecified),active: 77.3%
8,CC1CCC(NC(=O)c2cc3c(s2)CCCC3)CC1 (stereo unspecified),inconclusive: 50.1%
9,CC(=O)Cn1cnc2c(cnn2-c2ccc(C)c(C)c2)c1=O,inconclusive: 29.8%
10,c1coc(CSc2ncnc3c2oc2ccccc23)c1,active: 55.8%
11,COc1ccc(CCC(=O)Nc2cnc3ccccc3c2)cc1,inconclusive: 42.4%
12,C/C(CC(=O)Nc1ccc(OCc2ccccc2)cc1)=N\NC(=O)C(=O)Nc1ccccc1C,inconclusive: 40.7%
13,Cc1ccc(-c2nn3c(C)nnc3s2)cc1NC(=O)c1ccc(-c2cccc(Cl)c2)o1,inactive: -1.16%
14,c1ccc(-c2cc3nc(NCc4cccs4)ccn3n2)cc1,active: 66.8%
15,COc1cccc(C2Nc3ccccc3C(=O)N2O)c1O (stereo unspecified),inconclusive: 47.8%
16,COc1ccccc1CNC(=O)COC(=O)/C=C/c1ccc2c(c1)OCO2,inconclusive: 43.3%
17,Cc1ccc(NC(=O)/C=C/c2ccc(Cl)cc2)nc1,inconclusive: 42.3%
18,O=C(CSCC(=O)N1CCOCC1)Nc1nc(-c2ccc3c(c2)OCO3)cs1,active: 53.7%
19,CN(Cc1ccccc1)C(=O)COC(=O)c1c[nH]c2ccccc12,inconclusive: 40.2%
20,Cc1cccc(NC(=O)Nc2ccc(F)cc2)n1,inconclusive: 47.5%
21,CCOc1ccc2oc(C(=O)NNC(=O)c3ccccc3O)c(C)c2c1,active: 48.1%
22,COCC1CCCN(C(=O)c2ccc3nc(Cc4cccc(Cl)c4)oc3c2)C1 (stereo unspecified),active: 69.7%
